Data reported in the RNAGym collection of RNA variant scans (doi:10.7554/elife.90254).
The source gives no read counts; variants with many changes may rest on few reads.

B1: LINE1-mini (parent)
chain: GGCAGAGCUCAACACAGCGUGGCAAAGUGGCUGUGGCUAGACUGCC

Variants of: B1
Assay: self-cleavage, relative activity (ratio to wild type); higher = more cleavage; in vitro, sequencing; the parent is a self-cleaving ribozyme

| Variant | self-cleavage |
| --- | --- |
| C3G G27C G40A | 0.05 |
| C3G G29C U34A C42A | 0.37 |
| C3U A14C A26C G29A G44U | 0.06 |
| C3U C8A A25U | 0.21 |
| C3G G7U A12C G22C G27C G30C | 0.02 |
| C3U A4U C15U G19C G44C | 0.09 |
| C3U A16G G19U U38G G44A | 0.02 |
| C3U A11C G19U U20C A41C | 0.02 |
| C3U A24C G30A | 0.98 |
| C3U A4U C10A U20A A26C | 0.06 |
| C3U A12U G29C | 0.08 |
| C3U A4U A26U | 0.24 |
| C3U A6C U38A | 0.07 |
| C3U A11U A12C C15G C46U | 0.02 |
| C3G U9G G21U C23G C31U | 0.01 |
| C3G G36C G40C | 0.1 |
| C3U A6G U9G G30U G40U | 0.03 |
| C3U A24G U34G C37A | 0.29 |
| C3U A6U U9C | 0.01 |
| C3G G21A C37U | 0.08 |
| C3G G44U C46G | 0.17 |

| Variant | self-cleavage |
| --- | --- |
| C3U A4C A12U C18G G44C C45A | 0.02 |
| C3G U9G A14C A26C G27A | 0.09 |
| C3G G33U C37G G44U | 0 |
| C3U A24G C37A A41C | 0.27 |
| C3G G22A G29U C46A | 0.08 |
| C3U A12G G30C G44A | 0.01 |
| C3U A6G U20G G36A | 0.05 |
| C3U A16U C31A | 0.02 |
| C3U A6U A14C G40U | 0.18 |
| C3U A24C U34A G35U | 0.1 |
| C3U A14G G40U | 0.02 |
| C3U A14G G40C | 0.03 |
| C3G G7C G19U A24G G30U G40U C45G | 0 |
| C3G G21C U28C G29C C46A | 0.08 |
| C3U A6U G33A G40A A41U | 0.22 |
| C3U A16U A39U C45A | 0.1 |
| C3U A11U G27U C37G | 0.02 |
| C3G U9C C18G U20A G44A | 0.01 |
| C3U A11G G19C G21A | 0.03 |
| C3U A26C U28A C45U | 0.15 |
| C3G G40A A41U U43A | 0.06 |

| Variant | self-cleavage |
| --- | --- |
| C3U A26C U38C | 0.41 |
| C3U A4C A6U A16U G30U G33U | 0.02 |
| C3G U9A C10A A16U | 0 |
| C3G C23G U32C | 0.05 |
| C3G C18U C31A G36A C37U | 0.24 |
| C3G U9C G22C U43A | 0.02 |
| C3G U20G G22C G27U C46A | 1.13 |
| C3G G29C C37G | 0.16 |
| C3G C23A U32A U34A C37A A39C | 0.05 |
| C3U A6G U9A C15G G33U | 0.35 |
| C3U A26C G33A G36U A41U | 0.09 |
| C3G G5U A25G C31A C45G | 0.09 |
| C3U A14C U20A C46A | 0.03 |
| C3G C18U U28A | 0.13 |
| C3U A4C G29U C42U | 0.11 |
| C3U A6U G7C C15G G21A C37U | 0.04 |
| C3U A39C G44C | 0.09 |
| C3G C31A C42G | 0.05 |
| C3U A6U G17U G36A | 0.11 |
| C3U A4C A6U C31G | 0.04 |
| C3U A25U C31G C37A G44C | 0.04 |

| Variant | self-cleavage |
| --- | --- |
| C3G C18G U43G | 0.11 |
| C3U A12G G44U C45A | 0 |
| C3U A11G U28A U34C G36U | 0.01 |
| C3G U9A A14G G21U C37A U38A | 0.54 |
| C3U A6U A26G C42U | 0.09 |
| C3U A6G G7A C42U | 0.13 |
| C3U A16G C31U | 0.04 |
| C3G G5U A12C C42G C46G | 0.01 |
| C3G G19U A25C C31A C42A | 0.1 |
| C3G G17U G19C G21U A24C G35C | 0.19 |
| C3U A4G C8G G21C C37A | 0.04 |
| C3G G22C G29U G33A | 0.49 |
| C3U A11C C15U | 0.03 |
| C3U A11C C15A | 0.02 |
| C3G G5C C13A A16C U32G | 0.02 |
| C3U A16U G21A U38G | 0.05 |
| C3U A6C A41C | 0.05 |
| C3U A4C C46A | 0.04 |
| C3U A4U G5U C31G | 0.04 |
| C3G G22U G30A U38G | 0.66 |
| C3G G33U U43A | 0.09 |
